Laboratory results from patent publication US20070212355A1 (priority 2005, published 2007).

Key:
mutated human GLP-2R [1] = target: T1, mutated human GLP-2R (human, UniProt O95838 1-553); assay: cell-based or functional assay
T1 chain: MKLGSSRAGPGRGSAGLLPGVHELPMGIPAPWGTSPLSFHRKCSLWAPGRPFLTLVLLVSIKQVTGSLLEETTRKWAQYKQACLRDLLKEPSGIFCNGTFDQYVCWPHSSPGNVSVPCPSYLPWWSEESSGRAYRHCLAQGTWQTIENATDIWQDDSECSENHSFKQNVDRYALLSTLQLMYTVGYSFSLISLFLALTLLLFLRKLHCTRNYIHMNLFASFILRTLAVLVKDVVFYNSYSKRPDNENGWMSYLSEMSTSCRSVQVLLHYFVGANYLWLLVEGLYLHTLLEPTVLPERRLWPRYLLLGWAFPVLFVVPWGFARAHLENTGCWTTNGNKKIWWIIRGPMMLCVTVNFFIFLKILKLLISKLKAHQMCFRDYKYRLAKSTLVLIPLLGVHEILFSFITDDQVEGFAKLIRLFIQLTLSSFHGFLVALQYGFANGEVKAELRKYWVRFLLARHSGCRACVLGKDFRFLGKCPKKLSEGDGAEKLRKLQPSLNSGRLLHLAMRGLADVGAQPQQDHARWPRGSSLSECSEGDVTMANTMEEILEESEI

mutated human GLP-2R [2] = target: T1, mutated human GLP-2R; assay: cell-based or functional assay
[3] = SEC-SLS analysis of mimetibodies (monomer/dimer); assay type: physicochemical; conditions: purified from HEK 293E/HEK 293 expression

B1: A2G GLP-2 IgG4 mimetibody (Fc fusion)
chain: HGDGSFSDEMNTILDNLAARDFINWLIQTKITDGSGGGSGTLVTVSS[in this place human IgG4 Fc with S228P F234A L235A (EU numbers)]
EC50, cAMP expression (mutated human GLP-2R [1]): 3.8 nM | potency in cAMP expression assay, fold less than the corresponding peptide (mutated human GLP-2R [1]): ~4 fold | EC50 (nM), cAMP expression assay (mutated human GLP-2R [2]): 5.1 nM

B2: SEQ ID NO: 77: GLP-2 mimetibody with A2G, N16G, L17Q analog (protein)
chain: HGDGSFSDEMNTILDGQAARDFINWLIQTKITDGSGGGSGTLVTVSS[in this place human IgG4 Fc with S228P F234A L235A (EU numbers)]
modifications: GLP-2 Mimetibody nucleic acid sequence with A2G, N16G, L17Q mutation
SEC-SLS association state of mimetibody [3]: monomer

B3: SEQ ID NO: 75: GLP-2 mimetibody with A2G, L17Q analog (protein)
chain: HGDGSFSDEMNTILDNQAARDFINWLIQTKITDGSGGGSGTLVTVSS[in this place human IgG4 Fc with S228P F234A L235A (EU numbers)]
modifications: GLP-2 Mimetibody amino acid sequence with A2G, L17Q mutation
SEC-SLS association state of mimetibody [3]: monomer and dimer mixture
